Screen size: about 270,000 compounds; about 5,800 (2.1%) were called active. The inconclusive results got no clear call from the source; some entries with a clear call stand among them for comparison. Calls follow the shape of the dose curve; as a rule, active = well fitted inhibition curve with a large enough effect; inconclusive = small, poorly fitted or top-dose-only effect; inactive = flat fitted curve, though single readings scatter. Where the call is inconclusive, the potency comes from a doubtful curve fit.
The compounds below were run against Microtubule-associated protein tau (Homo sapiens) (UniProt P10636) (assay: qHTS for Inhibitors of Tau Fibril Formation, Thioflavin T Binding). Conditions: recombinant tau K18 P301L, heparin-induced fibrillization, ThT fluorescence; series mostly up to 57.4 µM; activity, negative = inhibition: at the top concentration.
UniProt P10636, sequence (P10636 whole entry, looked up): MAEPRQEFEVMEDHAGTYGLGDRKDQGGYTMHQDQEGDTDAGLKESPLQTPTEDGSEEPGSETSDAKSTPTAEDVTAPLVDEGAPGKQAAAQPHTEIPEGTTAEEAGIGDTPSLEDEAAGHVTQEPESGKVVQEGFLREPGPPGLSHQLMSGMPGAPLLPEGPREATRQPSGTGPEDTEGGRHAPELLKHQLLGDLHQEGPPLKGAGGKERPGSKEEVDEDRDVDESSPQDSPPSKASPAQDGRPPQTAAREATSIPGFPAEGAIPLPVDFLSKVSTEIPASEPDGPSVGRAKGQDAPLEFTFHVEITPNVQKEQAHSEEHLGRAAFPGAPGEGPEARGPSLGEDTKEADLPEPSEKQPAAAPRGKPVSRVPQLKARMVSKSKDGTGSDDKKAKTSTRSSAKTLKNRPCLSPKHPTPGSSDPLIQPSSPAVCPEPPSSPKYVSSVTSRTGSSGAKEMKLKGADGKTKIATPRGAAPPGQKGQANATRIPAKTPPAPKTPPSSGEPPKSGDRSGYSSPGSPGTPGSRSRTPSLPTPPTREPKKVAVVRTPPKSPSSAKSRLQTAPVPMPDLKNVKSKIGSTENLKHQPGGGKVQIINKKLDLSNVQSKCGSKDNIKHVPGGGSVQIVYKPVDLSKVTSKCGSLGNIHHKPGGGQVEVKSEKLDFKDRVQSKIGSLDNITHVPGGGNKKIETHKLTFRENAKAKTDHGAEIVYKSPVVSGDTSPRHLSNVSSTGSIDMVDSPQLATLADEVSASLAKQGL
Outline: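 Using a mix of unlabeled (15 uM) and Alexa 594-labeled (0.24 uM) tau K18 P301L, heparin-triggered fibrillization over 6 hr at 37 C was scored by ThT fluorescence.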
N#Cc1c(/N=C/C=C/c2ccccc2)sc2c1CCCC2 was tested, and the Potency was inconclusive: 2.82 µM [inhibitor, full curve].
In the case of CN(CC(=O)Nc1ccc(Cl)cc1)Cc1cc(=O)n2ccsc2n1, the “activity, negative = inhibition” value is reported as inactive: -4.38%.
For Cc1ccc(CNC(=O)c2ccc(CSCc3c(F)cccc3Cl)o2)cc1, the “activity, negative = inhibition” value was inactive: -0.146%.
For CCOc1ccc(/C=C/c2nc(C#N)c(N3CCCCCC3)o2)cc1, the Potency was inconclusive: 14.1 µM [inhibitor, partial curve].
With Cc1cccc(C2c3[nH]c4ccccc4c3CCN2C(=O)c2cc(CC(C)C)[nH]c(=O)n2)n1 (stereo not given) the Potency was inconclusive: 25.1 µM [inhibitor, single point].
For C[C@]12CCC3c4ccc(O)cc4CCC3C1CCC2=O (stereo not given in full), the Potency was inconclusive: 14.1 µM [inhibitor, partial curve].
CC(C)Oc1ccc(CNC(=O)c2cnc3sc(N4CCCCCC4)nn3c2=O)cc1 was tested, and the “activity, negative = inhibition” value was inactive: -5.28%.
With Cc1ccc(N2CCN(C(=O)Nc3cn(CC(C)C)c(=O)c4ccccc34)CC2)c(C)c1 the Potency was inconclusive: 10 µM [inhibitor, partial curve].
With CCCCN1C(=O)/C(=C2\SC(N3CCCCC3)=NC2=O)c2ccccc21 the Potency was inconclusive: 25.1 µM [inhibitor, partial curve].
For CC(C)CCn1c(=O)c2sccc2n2c(CCCC(=O)Nc3ccc(F)c(Cl)c3)nnc12, the Potency was inconclusive: 3.98 µM [activator, full curve].
With CC(=O)c1sc2nc(-c3cccs3)cc(C(F)(F)F)c2c1N the Potency was inconclusive: 7.94 µM [inhibitor, partial curve].
For COc1ccc(N2CCN(C(c3cc(OC)ccc3OC)c3nnnn3Cc3ccco3)CC2)cc1 (stereo not given), the Potency was inconclusive: 17.8 µM [inhibitor, single point].
With O=C(NCCc1ccccc1)c1ccc(-c2ccccc2Cl)o1 the Potency was inconclusive: 20 µM [inhibitor, partial curve, poor fit].
COc1ccc(C)cc1NC(=O)CNc1ccccc1CN(C)C1CCCCC1 was tested, and the “activity, negative = inhibition” value was inactive: -1.8%.
With C=CCNC(=S)NCc1cccnc1 the “activity, negative = inhibition” value was inactive: -3.31%.
With O=C(Nc1ccc(NC(=O)C2CCCCC2)nc1)c1ccccn1 the “activity, negative = inhibition” value was inactive: -15%.
For O=[N+]([O-])c1ccccc1/C=C/C=N/n1c(-c2ccc(Cl)cc2)n[nH]c1=S, the Potency was inconclusive: 3.98 µM [inhibitor, partial curve].
For CCCCN(C)CC(O)Cn1cc(/C=C/C(=O)c2ccc(OCC)cc2)c2ccccc21 (stereo not given), the Potency was active: 11.2 µM.
With Cc1ccc(NC(=O)CCSCCC(=O)Nc2ccc(C)c(C)c2)cc1C the Potency was inconclusive: 12.6 µM [inhibitor, partial curve].
C/C(=N/NC(=O)c1ccc(Cl)s1)c1ccc(NC(=O)COc2ccc(Cl)cc2)cc1 was tested, and the Potency was inconclusive: 2.82 µM [inhibitor, full curve].
With O=c1[nH]c2ccc(NC(=S)Nc3ccccc3)cc2[nH]1 the Potency was inconclusive: 17.8 µM [inhibitor, partial curve].
CC(=O)c1cc(-c2ccccc2)[nH]c1N1CCOCC1 was tested, and the Potency was active: 31.6 µM.
CCCCC(=O)Nc1cccc(-c2nc3ccccc3s2)c1 was tested, and the Potency was inconclusive: 2 µM [inhibitor, full curve, poor fit].
With Nc1cc(C(F)(F)F)ccc1Nc1ccccc1 the Potency was inconclusive: 20 µM [inhibitor, partial curve].
O=C(O)CC1S/C(=N/N=C/c2ccc([N+](=O)[O-])cc2)N(c2ccc(O)cc2)C1=O (stereo not given) was tested, and the Potency was inconclusive: 39.8 µM [inhibitor, single point].
With CCOc1ccccc1NC(=O)CCS(=O)(=O)c1ccc(OC)cc1 the Potency was “inactive”.
With CC(C)NC(=S)NC(=O)/C=C/c1ccc(F)cc1 the “activity, negative = inhibition” value was inactive: -5.24%.
For CC1=NNC(=O)/C1=C\c1cn(-c2ccccc2)nc1-c1cccs1, the Potency was inconclusive: 28.2 µM [inhibitor, partial curve].
For CN(c1ccc(Cl)cc1)S(=O)(=O)c1nnc(NC(=O)c2ccco2)s1, the Potency was inconclusive: 15.8 µM [inhibitor, partial curve].
In the case of Cc1ccc(CNC(=O)C2CC(c3cccc([N+](=O)[O-])c3)=NO2)o1 (stereo not given), the Potency is reported as inconclusive: 17.8 µM [inhibitor, partial curve].
With COc1cc(NC(=O)c2ccc(-c3ccc(Br)cc3)o2)ccc1NC(=O)C(C)C the Potency was inconclusive: 5.62 µM [inhibitor, partial curve].
In the case of FC(F)Oc1ccccc1/C=N/n1cnc2ccccc21, the Potency is reported as inconclusive: 11.2 µM [inhibitor, partial curve, poor fit].
With CCOC(=O)CCSCC(=O)N1N=C(c2cccs2)CC1c1ccc(C)cc1 (stereo not given) the Potency was inconclusive: 8.91 µM [inhibitor, partial curve].
With CCCNC(=O)OCCC12CC3CC(CC(C3)C1)C2 the Potency was inconclusive: 31.6 µM [inhibitor, single point].
With CCN(c1ccc(NC(=O)COC(=O)c2ccc3ccccc3n2)cc1)C(C)C the Potency was inconclusive: 39.8 µM [inhibitor, single point].
O=C(O)c1ccccc1C(=O)Nc1cccc([N+](=O)[O-])c1 was tested, and the “activity, negative = inhibition” value was inactive: 2.29%.
For O=C(Nc1ccccc1[N+](=O)[O-])c1csnn1, the “activity, negative = inhibition” value was inactive: -3.87%.
With COC(=O)c1c(-c2ccccc2)csc1NC(=O)C1CC=CCC1C(=O)O (stereo not given) the “activity, negative = inhibition” value was inactive: -12.9%.
Nc1nnc(CSCc2ccc(F)cc2)s1 was tested, and the “activity, negative = inhibition” value was inactive: 9.71%.
For CCOc1ccc2nc(SC3CC(=O)N(c4cccc(OC)c4)C3=O)sc2c1 (stereo not given), the Potency was inconclusive: 17.8 µM [inhibitor, partial curve, poor fit].
In the case of COc1cccc(C2NC(=S)NC(C)=C2C(=O)c2ccccc2)c1OC (stereo not given), the “activity, negative = inhibition” value is reported as inactive: 13.2%.
In the case of C/C(=N\Nc1nc(C)cc(=O)[nH]1)C1CC1, the Potency is reported as inconclusive: 31.6 µM [inhibitor, single point].
Cc1cc(C)c(NC(=O)C2CCCN2CCOC(=O)c2ccccc2)c(C)c1 (stereo not given) was tested, and the Potency was inconclusive: 31.6 µM [inhibitor, single point].
In the case of Nc1nnc(SCc2nc3scc(-c4ccccc4)c3c(=O)[nH]2)s1, the Potency is reported as inconclusive: 35.5 µM [inhibitor, single point].
For CCN(CC)c1ccc(C(=O)N/N=C(\C)c2ccc(OC)c(OC)c2)cc1, the Potency was inconclusive: 3.55 µM [inhibitor, full curve].

From PubChem BioAssay AID1460 (National Center for Advancing Translational Sciences (NCATS), 2008)
% is scaled to controls: 0 for no effect and ±100 for the full control effect; potency is read from the fitted curve at half-maximal effect; tags tell the direction and shape of the fitted curve.
Also: nearly all actives have a fitted effect of over 55% in size.
